The target in this series is His64 (UniProt position 64, ILNNGHAFNVE). Put plainly: NMR. The conditions noted are these: 50 mM MES, MOPS, HEPES, TRIS/HCl or CAPS, zinc-loaded, folded.
[1] abbreviates: 308 K, not stated (50 mM buffer, no added salt mentioned), inhibitor-free, inward conformation (pKa,1).
[2] abbreviates: 308 K, not stated (50 mM buffer, no added salt mentioned), inhibitor-free, outward conformation (pKa,2).

Some values that stand alone complete this part of the results.

A word on the pKa: it is the pH at which an ionisable group is half protonated.

For “Carbonic anhydrase II (HCAII), wild type (Homo sapiens)”, the pKa runs as follows: (308 K, not stated (50 mM buffer), acetazolamide bound (10 mM inhibitor, displaces the zinc-bound water), inward conformation (pKa,1)) 6.27 ± 0.17; (308 K, not stated (50 mM buffer), acetazolamide bound (10 mM inhibitor, displaces the zinc-bound water), outward conformation (pKa,2)) 7.43 ± 0.12; (308 K, not stated (50 mM buffer), inhibitor-free, Hill model fit) 7.12 ± 0.04; (308 K, not stated (50 mM buffer), inhibitor-free, higher macroscopic pKa, two-pKa fit) 7.62 ± 0.07; (308 K, not stated (50 mM buffer), inhibitor-free, lower macroscopic pKa, two-pKa fit) 6.20 ± 0.13; (308 K, not stated (50 mM buffer), inhibitor-free, single pKa model fit) 7.17 ± 0.03. The pKa by setting is: under setting [1], 6.25 ± 0.08; under setting [2], 7.60 ± 0.06; (313 K (Table 1), Methods and Fig. S2 say 314 K, not stated (50 mM buffer), inhibitor-free, inward conformation (pKa,1)) 6.05 ± 0.12; (313 K (Table 1), Methods and Fig. S2 say 314 K, not stated (50 mM buffer), inhibitor-free, outward conformation (pKa,2)) 7.41 ± 0.07.

With “Carbonic anhydrase II (HCAII) Y7F (Homo sapiens; Y7F)”, the pKa under setting [1] is on record as 6.13 ± 0.13 and the pKa under setting [2] is on record as 7.54 ± 0.05.

Consider “Carbonic anhydrase II (HCAII) H4A (Homo sapiens; H4A)”, for which the pKa is, setting by setting: under setting [1], 6.34 ± 0.12; under setting [2], 7.53 ± 0.09.

(Values after paper PMC10492700.)
